Measured values as given in the supplement of paper PMC7125110.
± gives the standard error. Variants at the background level are over-represented here.

B1: glmS ribozyme (parent)
chain: AUAAAAGCGCCAGAACUACAGAAAUGUAGUUGACGAGGAGGAGGUUUAUCGAAUUUUCGGCGGAUGCCUCCAAA

Key:
Conditions in all cases: with glucosamine-6-phosphate
glucosamine-6-phosphate [1] = variants of: B1; assay: self-cleavage kobs at 640 uM GlcN6P; higher = faster cleavage; RNA array
Summary of the method: (§1)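 On sequenced MiSeq chips, barcoded ribozyme variants were made in situ by E. coli RNA polymerase and followed at 37 °C through a hybridised Cy3 probe. Glucosamine-6-phosphate was flowed in at 40 μM to 10 mM in HEPES/KCl/Mg(OAc)2 buffer. Exponential fits to normalised per-tile medians gave kobs, and weighted Michaelis–Menten fits gave kcat and KM.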

glucosamine-6-phosphate [2] = variants of: B1; assay: self-cleavage kobs at 160 uM GlcN6P; higher = faster cleavage; RNA array
Summary of the method: as §1

glucosamine-6-phosphate [3] = variants of: B1; assay: self-cleavage kobs at 2500 uM GlcN6P; higher = faster cleavage; RNA array
Summary of the method: as §1

glucosamine-6-phosphate [4] = variants of: B1; assay: self-cleavage kobs at 10000 uM GlcN6P; higher = faster cleavage; RNA array
Summary of the method: as §1

Row | Variant | self-cleavage kobs at 640 uM GlcN6P (glucosamine-6-phosphate [1]) [s⁻¹] | self-cleavage kobs at 160 uM GlcN6P (glucosamine-6-phosphate [2]) [s⁻¹] | self-cleavage kobs at 2500 uM GlcN6P (glucosamine-6-phosphate [3]) [s⁻¹] | self-cleavage kobs at 10000 uM GlcN6P (glucosamine-6-phosphate [4]) [s⁻¹]
1 | G13A G44A C70U C71A | < 1e-05 | < 1e-05 | < 1e-05 | 
2 | A12C C61G G62A C71U | < 1e-05 |  | < 1e-05 | 
3 | C11G C50U U57A G60A C67U | 0.000609 ± 0.00017 |  |  | 
4 | C10G U31G | < 1e-05 | < 1e-05 | < 1e-05 | 
5 | G13A G29U A48G | < 1e-05 |  | < 1e-05 | 
6 | G13A C16U | 0.000172 ± 2.2e-05 | 4.29e-05 ± 1.2e-05 | 0.000459 ± 5.5e-05 | 
7 | A12G A33G | < 1e-05 | < 1e-05 | < 1e-05 | < 1e-05
8 | C11A A36U U56A C68G C70A | 0.000823 ± 0.0003 | 6.51e-05 ± 2.8e-05 |  | 4.16e-05 ± 1.8e-05
9 | A12U C34U A36U U55G | < 1e-05 | < 1e-05 |  | < 1e-05
10 | C11U U46G | 5.11e-05 ± 7.1e-06 |  | 0.00018 ± 2.7e-05 | 0.000204 ± 2.3e-05
11 | C10U A42C C67U | < 1e-05 |  |  | 
12 | C11A C16A A39U C50A | < 1e-05 | < 1e-05 |  | 
13 | C10G G40U C70U | < 1e-05 |  | < 1e-05 | 
14 | A12U G63C | < 1e-05 | < 1e-05 |  | < 1e-05
15 | G13C G29C G35U A53U | < 1e-05 |  | < 1e-05 | 
16 | C11U C68A C71G | 0.000101 ± 2.3e-05 |  |  | 
17 | C10G U46A | < 1e-05 |  | < 1e-05 | 
18 | A12U A14C G40C G63U | < 1e-05 |  |  | 
19 | A12U G29U G59U C68G C70A | 4.93e-05 ± 2.3e-05 |  |  | 
20 | C11A A33G G63A G66U | < 1e-05 |  |  | 
21 | C11U U49A G62U | < 1e-05 | < 1e-05 |  | 
22 | A12G C67G | 8.36e-05 ± 8.2e-06 | 2.45e-05 ± 1.1e-05 | 0.000182 ± 1.7e-05 | 0.000273 ± 1.9e-05
23 | C10G U57A | < 1e-05 |  |  | < 1e-05
24 | C11U A33U A39C | < 1e-05 | < 1e-05 |  | 
25 | A12U A48U U49A | < 1e-05 |  |  | 
26 | C11G U47G C50A C70G | 0.000245 ± 6.2e-05 |  | 0.000139 ± 4e-05 | 7.52e-05 ± 1.9e-05
27 | C11U A33U C34G | < 1e-05 |  | < 1e-05 | < 1e-05
28 | A12U A52U G60A | < 1e-05 |  |  | 

Row | Variant | self-cleavage kobs at 640 uM GlcN6P (glucosamine-6-phosphate [1]) [s⁻¹] | self-cleavage kobs at 160 uM GlcN6P (glucosamine-6-phosphate [2]) [s⁻¹] | self-cleavage kobs at 2500 uM GlcN6P (glucosamine-6-phosphate [3]) [s⁻¹] | self-cleavage kobs at 10000 uM GlcN6P (glucosamine-6-phosphate [4]) [s⁻¹]
29 | C11U G40C U47C | < 1e-05 |  |  | 
30 | C11U U30A A33U G63C C70G | < 1e-05 |  |  | 
31 | C10U A36U G41A | < 1e-05 |  | < 1e-05 | 
32 | C11G G32U G37C G38U | < 1e-05 |  | < 1e-05 | < 1e-05
33 | C10G G29U U31C G32C C34G C71A | < 1e-05 |  |  | 
34 | C11G G40C | < 1e-05 | < 1e-05 | < 1e-05 | < 1e-05
35 | C10U A33U G43U A53C U57G | < 1e-05 |  | < 1e-05 | 
36 | G13C A14C U55G G59U | < 1e-05 | < 1e-05 |  | 
37 | A12G G59C G63C C67A | < 1e-05 | < 1e-05 | < 1e-05 | 
38 | C11G A42U U45C G66U C70G | < 1e-05 |  | < 1e-05 | 
39 | A12G U31C G37C | < 1e-05 |  | < 1e-05 | 
40 | C11A G35C U47C U57G U65G | < 1e-05 |  |  | 
41 | C11G A42U G63U | < 1e-05 |  |  | 
42 | A12C U57A | 5.75e-05 ± 1.5e-05 |  | 6.14e-05 ± 1.2e-05 | 0.000113 ± 1.9e-05
43 | G13C A39C C61A C70U | < 1e-05 |  |  | 
44 | A12U G60U U65C | < 1e-05 | < 1e-05 | < 1e-05 | 
45 | C10U U30C U55C | < 1e-05 |  |  | 
46 | C11G A12C A42C G60C C71U | < 1e-05 |  | < 1e-05 | 
47 | G13A G29U G38A A39C | < 1e-05 |  |  | 
48 | G13A A39G A48U G59U C68G | < 1e-05 |  |  | 
49 | A12U A33U G43C G60C C61U G63U G66U C70U | < 1e-05 |  | < 1e-05 | 
50 | A12C G29A G60A C70A | < 1e-05 |  |  | 
51 | C10U A33U G62U C71A | < 1e-05 | < 1e-05 | < 1e-05 | < 1e-05
52 | A12U G59C U69A | 0.00122 ± 0.00048 |  |  | 
53 | A12C A33G G40A | < 1e-05 | < 1e-05 | < 1e-05 | 
54 | C11A A33U G66A | < 1e-05 | < 1e-05 | < 1e-05 | 
55 | C11G G29U C34G | < 1e-05 |  | < 1e-05 | 
